# Measured values taken from the supplement of paper PMC3334620.
# In all, about 33,000 sequences were measured (“E-score (-0.5 to 0.5)”: median about -0.035, highest 2% from about 0.35 on). The list shows a part of the results.
# Target: T1, Pdr3 (UniProt P33200)
# T1 sequence: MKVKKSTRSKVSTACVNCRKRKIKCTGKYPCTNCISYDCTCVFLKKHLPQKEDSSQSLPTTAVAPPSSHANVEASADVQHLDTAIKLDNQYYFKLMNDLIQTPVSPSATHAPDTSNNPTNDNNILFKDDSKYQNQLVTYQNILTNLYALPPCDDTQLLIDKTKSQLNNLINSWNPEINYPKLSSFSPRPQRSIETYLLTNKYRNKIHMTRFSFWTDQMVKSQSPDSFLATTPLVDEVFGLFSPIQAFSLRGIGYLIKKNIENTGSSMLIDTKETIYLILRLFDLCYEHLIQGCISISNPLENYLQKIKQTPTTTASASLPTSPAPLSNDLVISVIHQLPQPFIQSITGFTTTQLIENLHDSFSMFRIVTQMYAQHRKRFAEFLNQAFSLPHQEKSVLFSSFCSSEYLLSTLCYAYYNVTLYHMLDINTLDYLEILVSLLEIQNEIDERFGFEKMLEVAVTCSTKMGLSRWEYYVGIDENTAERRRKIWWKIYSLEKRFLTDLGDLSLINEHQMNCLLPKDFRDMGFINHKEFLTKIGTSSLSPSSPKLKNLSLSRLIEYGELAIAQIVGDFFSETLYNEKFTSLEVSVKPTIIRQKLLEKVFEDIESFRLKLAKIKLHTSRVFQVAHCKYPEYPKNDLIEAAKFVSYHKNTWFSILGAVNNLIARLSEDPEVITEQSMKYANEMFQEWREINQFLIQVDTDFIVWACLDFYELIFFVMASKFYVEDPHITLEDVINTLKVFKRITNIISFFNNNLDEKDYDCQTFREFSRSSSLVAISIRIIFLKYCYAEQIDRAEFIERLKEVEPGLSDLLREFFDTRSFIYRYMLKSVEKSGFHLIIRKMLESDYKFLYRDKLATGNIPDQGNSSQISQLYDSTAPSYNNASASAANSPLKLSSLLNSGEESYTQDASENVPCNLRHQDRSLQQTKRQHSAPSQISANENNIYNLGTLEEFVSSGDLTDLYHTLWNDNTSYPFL
# Test: PBM E-score (8-mer binding enrichment) (E-score (-0.5 to 0.5)); higher = stronger / more preferred TF binding; most listed sequences are background and not binding sites
# Settings: protein concentration: 200 nM; construct: GST-full length
# Procedure, shortened: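 Yeast transcription factors, full-length or as DNA-binding domains, were expressed with a GST tag using PURExpress in vitro transcription/translation. At about 100-200 nM they were applied to universal all-10-mer Agilent arrays, double-stranded by primer extension on fresh or once-stripped slides. Fluorescent anti-GST detected bound protein, and masliner normalised the scans. E-scores for ungapped eight-base words, pooled with reverse complements, came from the Universal PBM Analysis Suite.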
row,Sequence,PBM E-score
1,AAAGGGCG,0.0479
2,TACGCCAA,-0.311
3,CTTCGTCA,-0.0401
4,CGATACAC,-0.185
5,CGCCGAGA,0.228
6,ATAAATCC,0.0975
7,AACAAAGT,0.209
8,CCCGATTC,0.134
9,ATTTGAAC,0.0748
10,ACACTGAC,0.0461
11,ACACCTAG,-0.208
12,CGGCACGA,0.292
13,CACCTATG,-0.12
14,ACCTGTCA,-0.19
15,GCGTGCTA,-0.338
16,CTGCTCTA,-0.0167
17,ATAGATGG,-0.184
18,CATGTTCC,0.281
19,GCTGCCTA,-0.102
20,ACGGGTGC,0.135
21,AAATCTAC,0.0743
22,CAATTATA,-0.157
23,CGCCTTTA,-0.0716
24,CGGTAGTA,-0.09
25,GCTTGTGA,-0.252

row,Sequence,PBM E-score
1,CCAGTCTA,-0.261
2,GAGCGGCC,0.0807
3,ACAAGCGA,0.0877
4,CCTGATAC,-0.0182
5,CAGTGTTC,0.11
6,AAATCTGT,0.00886
7,AAAATAGT,-0.0861
8,ATCTCGTC,0.0833
9,CCACTGCG,-0.00589
10,AGCCCAAG,-0.136
11,AAAGCGGT,-0.0821
12,ATGTTCGC,-0.165
13,GATCTCTA,-0.17
14,CCTTCGAC,-0.191
15,ACTTAACG,-0.234
16,CACGCTGC,-0.115
17,CAAGAGGC,-0.113
18,AGGTCCAC,-0.095
19,GGGTTCAC,0.179
20,ATGCTGTA,-0.0465
21,GAGTATCC,0.189
22,CATAGACC,-0.0935
23,GGGATCTA,0.105
24,CTAACAGC,0.101
25,ATAGCCGA,0.191

row,Sequence,PBM E-score
1,TCGTCCCA,-0.04
2,AACGCAGT,-0.121
3,ATTTGTAA,-0.00432
4,CAGCCCTA,0.113
5,AATATATA,0.0898
6,ATGTGAAA,-0.184
7,ACCACCAA,-0.0661
8,CTCAGTGA,-0.36
9,AAGTGCTC,-0.107
10,GCTGTAGA,0.0283
11,ACAATTCT,-0.127
12,ATGATCAG,-0.221
13,GAGTATCA,-0.0466
14,TCGCATCA,0.169
15,CAGTAGTA,-0.146
16,AAAACCGT,-0.0753
17,AATCGGAA,0.445
18,AGCTTCCT,-0.0692
19,GGGGAGGA,0.0182
20,CTTCTACA,-0.161
21,CGCCAACA,0.0251
22,CTTGTAAA,-0.127
23,GCAGGGAA,0.0453
24,AGGACCCG,0.17
25,ATTTCGTG,0.0103

row,Sequence,PBM E-score
1,GAACCTTA,0.237
2,AGTAATGG,-0.0776
3,ATGGTTGG,-0.0179
4,GTCCAAAC,-0.21
5,AACAGAGG,-0.128
6,ACTCACAC,0.143
7,ATAAAGCG,-0.096
8,AGTTCGCG,0.148
9,AAGCAACA,-0.21
10,CAGGGTGC,-0.142
11,CCGTCCGC,0.261
12,GATGAGAA,-0.131
13,GTACCATA,-0.164
14,AGAGGTTG,-0.112
15,AAATAGAC,0.0586
16,CGTACGTC,-0.134
17,CCCCGAGG,0.165
18,CGGTTAGA,0.0958
19,AACGCCCG,0.231
20,CATGAAGC,0.058
21,ACATTGCA,-0.118
22,ACGTTCTG,0.0019
23,ATCCGCAT,0.267
24,CTAGAACC,-0.237
25,GGGCCGAA,0.121

row,Sequence,PBM E-score
1,AAACTTGT,-0.00572
2,CGATCTCA,-0.00747
3,GGCTCCAC,-0.235
4,GCGAGGAA,0.253
5,TATGTTGA,-0.0621
6,CCAGGACA,0.0484
7,GACGTCCA,0.0284
8,GATGGTCC,0.0792
9,ACGCAATA,0.0846
10,GCTCGAAC,-0.0851
11,AGTCAAGG,-0.135
12,ACACTTAC,0.0449
13,AAAAAGAT,-0.0609
14,AGGAAGTA,0.0507
15,CTCCCCGC,0.34
16,AACATGCG,-0.0894
17,CCTAACGA,-0.163
18,GTTCCGTA,0.471
19,ACTAGAAG,-0.111
20,AGGATGCG,-0.0929
21,CGGCTAAA,0.183
22,GACGCGTC,-0.0516
23,AAACACTA,-0.158
24,GTATACCA,-0.00724
25,AAAAGGGA,-0.114

row,Sequence,PBM E-score
1,ACGCATCA,-0.129
2,CAGTTGAA,-0.151
3,ACTGTAAC,-0.167
4,AAGTAGCG,-0.212
5,CGGTCAAG,0.198
6,GGCCCCGA,0.181
7,GAACCAGA,-0.134
8,AGATAGAG,0.0305
9,CAAGTTCC,0.243
10,TGTTTGAA,-0.218
11,AGAATTCG,-0.0278
12,GGGGGTCA,-0.225
13,ACGTGGTG,-0.0844
14,AGTTTTAC,-0.00174
15,CTTGACCA,-0.251
16,CGCGTTGC,0.205
17,ATGGCACC,-0.0273
18,CGGGTGCC,0.191
19,ACGTGCTA,-0.238
20,CACTGCGA,-0.0545
21,CTTCTCAA,-0.223
22,GTAATGAC,-0.0972
23,GTTTTACA,-0.181
24,CTCTATTC,0.0887
25,ATCCACGC,-0.296

row,Sequence,PBM E-score
1,GCATCGGC,0.106
2,GGCGGAGA,0.288
3,GTCTAAGA,0.0409
4,GTAGGTTA,-0.0402
5,AGGAGACA,0.00111
6,CTGGGTTC,0.0387
7,GTAAGAGA,-0.0427
8,ACCTTTAT,-0.226
9,GCGTACCC,-0.0492
10,CAATTCGC,0.189
11,CTCTAGCC,-0.195
12,ATCCAGGC,-0.0165
13,GGAAGCCC,0.227
14,CGCGTTGA,0.0123
15,CCGAAGAC,0.192
16,CGATATAC,0.0617
17,GGTCCCTA,-0.0242
18,ACCGGAGA,0.353
19,GCCCTCAA,-0.225
20,CTGTCGTA,-0.0699
21,CTCGCCGC,0.161
22,CGTAGAGA,-0.182
